# Assay results published in publication PMC4434885.
# The chains behind the UniProt entries cited, without tags or fusion partners.
# UniProt O15131: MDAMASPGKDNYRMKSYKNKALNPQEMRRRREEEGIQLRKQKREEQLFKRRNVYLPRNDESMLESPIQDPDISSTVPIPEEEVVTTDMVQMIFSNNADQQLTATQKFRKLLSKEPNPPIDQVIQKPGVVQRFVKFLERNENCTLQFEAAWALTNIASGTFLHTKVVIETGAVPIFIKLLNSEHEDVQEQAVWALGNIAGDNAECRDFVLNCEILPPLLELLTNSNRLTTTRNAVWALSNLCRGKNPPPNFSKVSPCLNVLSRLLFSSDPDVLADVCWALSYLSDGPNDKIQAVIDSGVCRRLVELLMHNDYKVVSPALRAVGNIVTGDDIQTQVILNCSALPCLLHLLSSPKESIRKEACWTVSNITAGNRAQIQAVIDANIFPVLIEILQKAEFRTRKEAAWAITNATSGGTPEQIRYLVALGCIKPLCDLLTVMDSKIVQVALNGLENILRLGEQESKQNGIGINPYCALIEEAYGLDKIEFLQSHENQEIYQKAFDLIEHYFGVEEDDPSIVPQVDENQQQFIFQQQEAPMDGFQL
# UniProt O00629: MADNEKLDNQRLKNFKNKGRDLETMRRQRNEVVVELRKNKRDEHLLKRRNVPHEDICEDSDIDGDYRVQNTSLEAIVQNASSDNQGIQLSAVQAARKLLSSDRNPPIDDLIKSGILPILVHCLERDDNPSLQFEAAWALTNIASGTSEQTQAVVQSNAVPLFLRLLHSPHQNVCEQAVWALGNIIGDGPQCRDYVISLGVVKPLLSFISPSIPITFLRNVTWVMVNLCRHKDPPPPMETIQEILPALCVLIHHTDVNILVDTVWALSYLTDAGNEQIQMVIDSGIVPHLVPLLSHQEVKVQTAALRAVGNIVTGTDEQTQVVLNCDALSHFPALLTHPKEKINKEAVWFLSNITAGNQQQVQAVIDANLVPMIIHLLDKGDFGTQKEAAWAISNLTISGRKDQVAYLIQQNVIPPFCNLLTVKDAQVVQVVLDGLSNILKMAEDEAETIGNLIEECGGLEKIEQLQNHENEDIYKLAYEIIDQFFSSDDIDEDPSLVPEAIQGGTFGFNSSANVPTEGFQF
# UniProt Q14974: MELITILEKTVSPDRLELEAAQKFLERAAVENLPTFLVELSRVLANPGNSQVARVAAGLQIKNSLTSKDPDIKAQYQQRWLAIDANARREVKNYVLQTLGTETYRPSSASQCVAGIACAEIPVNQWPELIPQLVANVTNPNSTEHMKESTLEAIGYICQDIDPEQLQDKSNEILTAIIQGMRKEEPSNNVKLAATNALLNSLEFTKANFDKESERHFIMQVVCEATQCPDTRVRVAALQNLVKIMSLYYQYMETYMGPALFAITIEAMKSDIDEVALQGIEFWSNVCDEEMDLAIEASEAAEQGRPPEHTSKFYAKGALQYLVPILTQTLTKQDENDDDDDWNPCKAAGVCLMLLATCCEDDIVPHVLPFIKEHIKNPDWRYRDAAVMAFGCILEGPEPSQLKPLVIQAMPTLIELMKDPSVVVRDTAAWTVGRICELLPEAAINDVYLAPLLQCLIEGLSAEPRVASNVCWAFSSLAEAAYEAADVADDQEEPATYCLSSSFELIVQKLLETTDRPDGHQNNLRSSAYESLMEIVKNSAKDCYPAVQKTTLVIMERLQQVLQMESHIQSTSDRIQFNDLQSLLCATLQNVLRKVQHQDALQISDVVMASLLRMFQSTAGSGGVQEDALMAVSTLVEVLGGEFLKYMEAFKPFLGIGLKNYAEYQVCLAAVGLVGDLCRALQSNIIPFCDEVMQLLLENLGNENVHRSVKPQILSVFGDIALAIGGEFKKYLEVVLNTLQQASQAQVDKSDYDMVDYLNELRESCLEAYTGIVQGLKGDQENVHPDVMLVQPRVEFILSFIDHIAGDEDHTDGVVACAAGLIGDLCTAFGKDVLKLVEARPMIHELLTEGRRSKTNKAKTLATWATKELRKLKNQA
# Results are given in words; binding and its absence hold for the method and conditions named. For some assays here: In cells and extracts the contact can be indirect. Some results given as binding are weak or reduced against the parent protein; the word gives no strength.
# What was measured:
# [1] = target: GST-importin α6 (full length) (UniProt O15131); assay: pull-down; GST or GST-importin α1 or α6 pre-bound to glutathione-Sepharose, mixed with COS-1 cell lysates containing EGFP-MSP58 1–100 or 102–300; anti-GFP Western blot; only the target purified
# [2] = target: LexA-MSP58 (58-kDa microspherule protein, full length) (UniProt Q96EZ8); assay: two-hybrid; directed test in S. cerevisiae L40: LexA-MSP58 constructs (pBTM116) as bait, Gal4 AD-importins (pACT2) as prey; growth without histidine, X-Gal colony assay and quantitative liquid β-galactosidase assay
# [3] = target: HA-MSP58 (full length, stably expressed in HT1080) (UniProt Q96EZ8); assay: co-IP; lysates (modified RIPA buffer) of HT1080 cells stably expressing HA-MSP58; anti-HA immunoprecipitation, protein A/G PLUS-agarose; Western blot for endogenous importins; mouse IgG as control
# [4] = target: GST-importin α6 (full length) (UniProt O15131); assay: pull-down; 2 μg GST or GST-importin α1 or α6 with in vitro translated MSP58 (40 μl), 1-2 h, 10 mM Hepes pH 7.5, 50 mM NaCl, 0.1% Nonidet P-40, 0.5 mM DTT, 0.5 mM EDTA; glutathione Sepharose; anti-HA Western blot; only the target purified
# LexA-MSP58 300–462 = LexA-MSP58 300–462 (UniProt Q96EZ8); assay: two-hybrid; directed test in S. cerevisiae L40: LexA-MSP58 constructs (pBTM116) as bait, Gal4 AD-importins (pACT2) as prey; growth without histidine, X-Gal colony assay and quantitative liquid β-galactosidase assay
# LexA-MSP58 1–300 = LexA-MSP58 1–300 (UniProt Q96EZ8); assay: as above
# LexA-MSP58 1–100 = LexA-MSP58 1–100 (UniProt Q96EZ8); assay: as above
# LexA-MSP58 102–300 = LexA-MSP58 102–300 (UniProt Q96EZ8); assay: as above
substance,measurement,setting,value
EGFP-MSP58 102–300 (from UniProt Q96EZ8 102-300) (domain or fragment),binding,[1],binds
Gal4 AD-importin α3 (entire) (from UniProt O00629 1-521),binding,[2],no binding
endogenous importin α6 (HT1080) (from UniProt O15131 1-539),binding,[3],binds
Gal4 AD-importin β (from UniProt Q14974 1-876),binding,[2],no binding
in vitro-translated MSP58 (full length) (from UniProt Q96EZ8 1-462),binding,[4],binds
EGFP-MSP58 1–100 (from UniProt Q96EZ8 1-100) (domain or fragment),binding,[1],binds
Gal4 AD-importin α6 (entire) (from UniProt O15131 1-539),binding,LexA-MSP58 300–462,no binding
same,binding,[2],binds
same,binding,LexA-MSP58 1–300,binds
same,binding,LexA-MSP58 1–100,binds
same,binding,LexA-MSP58 102–300,binds
